B1: LINE1-mini (parent)
chain: GGCAGAGCUCAACACAGCGUGGCAAAGUGGCUGUGGCUAGACUGCC

Read counts are not given, so values of variants with three or more changes are uncertain.

The data set covers variants of B1. Put plainly: self-cleavage, relative activity (ratio to wild type); higher = more cleavage; in vitro, sequencing; the parent is a self-cleaving ribozyme.
In the case of G21A C23G C37A A41C U43C, the self-cleavage worked out at 0.05.

G21U G29U G40A C45U: the self-cleavage is 0.15.

As to G21U G33U U38C, the self-cleavage is 0.02.

Take G21U G33U U43A C45G: the self-cleavage came to 0.03.

Turning to C23A C31G A41U G44C C45U, the self-cleavage worked out at 0.04.

With C23A A39G C42A, the self-cleavage is 0.27.

Regarding G21U A24C G29U, the self-cleavage was determined as 2.54.

For C23A G35A C37A A39G G44C, the self-cleavage came out at 0.1.

G21C G27U G29U G36C: the self-cleavage was 0.05.

As for U20C U38G A39C A41U, the self-cleavage stood at 0.04.

In the case of G21A G22C A41G, the self-cleavage was found to be 0.41.

For the variant G22C A24C G35C U43G, the self-cleavage was found to be 0.02.

With G22A G35U C37G, the self-cleavage came out at 0.05.

Consider G21A C42U C45G, for which the self-cleavage is 0.14.

On to G21A C37U G40A G44U, for which the self-cleavage was determined as 0.06.

Consider U20G G36U C37U A39U G44U, for which the self-cleavage worked out at 0.02.

On to G21U A24G A39C, for which the self-cleavage came to 0.18.

In the case of G22U G40A C42A, the self-cleavage is 0.01.

In the case of G21U C23A U32C A39C, the self-cleavage was 0.05.

Take C23A G29C C45G: the self-cleavage is 0.16.

G22A G30A U43C: the self-cleavage was found to be 0.24.

In the case of G22U C31A C46A, the self-cleavage turned out to be 0.1.

G21A G22A G29U: the self-cleavage was 0.6.

Consider G22C U38G C42A, for which the self-cleavage was 0.01.

In the case of U20G G33A C42G, the self-cleavage is 0.04.

C23A G29A G35A: the self-cleavage was found to be 0.19.

For the variant G21U G22U C37G, the self-cleavage was determined as 0.35.

With G22A U28C U34C C46U, the self-cleavage was 0.45.

With C23A C31U G36A C42A G44U, the self-cleavage amounted to 0.03.

Consider G22A U28A U38C, for which the self-cleavage was determined as 0.57.

Turning to G22A G40A A41G C42G, the self-cleavage was 0.01.

In the case of G22A G27U U28G G29U, the self-cleavage was 0.47.

Take U20G G29A C46G: the self-cleavage amounted to 0.21.

With G21U A24G G30C G36U A39G, the self-cleavage came to 0.02.

With G21U U32G C37G C45U, the self-cleavage was found to be 0.1.

For the variant G22U U28C G44A, the self-cleavage came to 0.14.

Turning to G21U G33U G44A, the self-cleavage is 0.03.

As to G21U G27U G35U, the self-cleavage was determined as 0.17.

As to G22A G29C G30A U34C, the self-cleavage was 0.09.

As for G21U A24C G33U, the self-cleavage was 0.11.

Consider G21U G33U C37A C42A C46U, for which the self-cleavage was 0.06.

With U20G G21U A24G, the self-cleavage is 1.22.

In the case of C23A A25U C37G, the self-cleavage was found to be 0.15.

Take G21A A26U G40A: the self-cleavage was 0.04.

As to U20C G29C G30U, the self-cleavage was 1.25.

Consider G22A C23A C31A, for which the self-cleavage turned out to be 0.16.

Take G21A U28G C31A: the self-cleavage came to 0.06.

Regarding G21A A24C G35A A39U, the self-cleavage stood at 0.1.

On to G22U G30C U43C, for which the self-cleavage came to 0.24.

As for G22A G29U U34G C46U, the self-cleavage was found to be 0.32.

For the variant G21U G27A G30C C37A, the self-cleavage was 0.03.

In the case of U20G A24U G33A C42U, the self-cleavage was 0.06.

In the case of G21A U28G C31A U43C, the self-cleavage was determined as 0.1.

As for G21A A25U C31G, the self-cleavage was 0.11.

Take C23A G35U U38C G40C: the self-cleavage was 0.05.

Regarding U20C G35C C37A, the self-cleavage amounted to 0.15.

In the case of G21A A25U U38G, the self-cleavage stood at 0.05.

Consider U20G G35C C46U, for which the self-cleavage is 0.02.

Take G21U G22C C31A: the self-cleavage is 0.44.

Turning to G21C U34G C46U, the self-cleavage was 0.21.

For G22U A25G U38G C45A, the self-cleavage was found to be 0.01.

On to G21U G35U C45U, for which the self-cleavage was 0.21.

Regarding U20G G21U G35A, the self-cleavage is 0.46.

Take G22C A26C C37G A41U: the self-cleavage was found to be 0.02.

Take G21C G27A G29C: the self-cleavage came out at 0.59.

As for G21U A39C A41U, the self-cleavage turned out to be 0.11.

Regarding G22A C37G G40C, the self-cleavage worked out at 0.

Turning to G21U A25C G29U G35C, the self-cleavage was found to be 0.12.

In the case of G21A G30U G35A A39C C46A, the self-cleavage was determined as 0.06.

As for C23A A25G G44U, the self-cleavage is 0.08.

As for G22U A24U G27A C45A, the self-cleavage worked out at 2.22.

For C23A A26U G44A, the self-cleavage was 0.37.

As for G21C G22A G30U, the self-cleavage was determined as 0.7.

With U20G G22A U32G, the self-cleavage came to 0.09.

As for G21C G29U C37U, the self-cleavage stood at 0.03.

As for G22A C23A G36A, the self-cleavage worked out at 0.27.

Take G21C G29U C31G U32C G33U: the self-cleavage came to 0.05.

With G22U A24G G40U, the self-cleavage was found to be 0.18.

As to G21U G36C A39G, the self-cleavage was found to be 0.05.

For C23A G27C U32A, the self-cleavage was 0.16.

Take U20G C23U G35U C42G: the self-cleavage came out at 0.04.

For the variant G21U A26U C37A A39C, the self-cleavage was found to be 0.03.

G21U A26G G27C G30C C37U: the self-cleavage came out at 0.05.

Turning to G21U U32C G40C, the self-cleavage came to 0.02.

Regarding U20C G30A C31A A41G, the self-cleavage amounted to 0.28.

For the variant U20G G30U C42U, the self-cleavage came out at 0.51.

As for G22A G30A C46A, the self-cleavage is 0.94.

Consider U20C G36U C37A, for which the self-cleavage came to 0.02.

For the variant G21A G30U C45G, the self-cleavage was determined as 0.28.

Consider G21U U34G G35U C45A, for which the self-cleavage was determined as 0.07.

Consider G22U G33U A39C, for which the self-cleavage amounted to 0.16.

Consider G21A A24U C31A C46A, for which the self-cleavage amounted to 0.08.

As for C23A C37G U38A, the self-cleavage came out at 0.01.

For the variant G22C G29U C45U C46U, the self-cleavage turned out to be 0.13.

On to G22U G30C U38G C46A, for which the self-cleavage stood at 0.01.

For the variant G21C C31U G36A, the self-cleavage was determined as 0.04.

For the variant G21A G27U G44A, the self-cleavage is 0.91.

For G21A G29U U32C A39C, the self-cleavage turned out to be 0.09.

With G22A C31G A41C C42U, the self-cleavage was 0.02.

With G21U G33A U43A, the self-cleavage was determined as 0.06.

On to G21C U38G G40A C42U, for which the self-cleavage stood at 0.01.

As to G21A G22U C23U C31U G33C, the self-cleavage worked out at 0.07.

For the variant G21A G30A G35U C46U, the self-cleavage stood at 0.19.

In the case of U20G G22C A26C, the self-cleavage amounted to 0.13.

Regarding G21A C31G G40C, the self-cleavage was 0.02.

For C23A A26U G29U U43A C46U, the self-cleavage is 0.03.

Consider G21U C31U C46A, for which the self-cleavage is 0.19.

For the variant U20G G40U C46G, the self-cleavage was 0.07.

Consider G22C U28A U43G, for which the self-cleavage came out at 0.

In the case of U20G C23G A39G G44C, the self-cleavage turned out to be 0.02.

Consider G22A G33C G36C, for which the self-cleavage was 0.05.

Consider G21A C23A G29U, for which the self-cleavage stood at 0.23.

As for C23A G36C G40C, the self-cleavage was determined as 0.05.

Take G21U G30U U43C C46U: the self-cleavage came to 0.11.

As for G22A G30A G33C U34G, the self-cleavage is 0.03.

Consider G21U G36A G40U, for which the self-cleavage was 0.42.

Turning to U20C G27C G36U C46G, the self-cleavage is 0.02.

U20G C31A A41C: the self-cleavage came to 0.03.

As for G21A G27C G40A C45A, the self-cleavage was 0.02.

Take G21A U34C C46A: the self-cleavage stood at 0.07.

G21A U34C C46U: the self-cleavage worked out at 0.12.

As for U20G G21U U34G U43A, the self-cleavage worked out at 0.02.

Consider G22A C23A G33A U43A, for which the self-cleavage is 0.05.

On to G22U C31G U38C A39U, for which the self-cleavage was found to be 0.1.

With U20G A25G G44U, the self-cleavage came out at 0.02.

In the case of G21A C23U C46A, the self-cleavage stood at 0.23.

Take G22C G33C A39C: the self-cleavage came to 0.05.

On to G22U G27A G44C, for which the self-cleavage is 0.47.

Take G22A C23A A24U A41U: the self-cleavage was found to be 0.86.

In the case of G21U C23A A25G A41G C46U, the self-cleavage came out at 0.26.

Turning to G22U U34G G36A, the self-cleavage was 0.03.

For the variant G21C C23U A24G C42A, the self-cleavage is 0.16.

Take G21A G29A A41C C42A: the self-cleavage amounted to 0.06.

G21A G22U G30A: the self-cleavage was determined as 0.35.

As for G21U A24U A39G A41U, the self-cleavage came to 0.02.

U20G U38A U43C: the self-cleavage was found to be 0.01.

With G22C U38C C46G, the self-cleavage turned out to be 1.5.

Regarding U20G G27C C31U, the self-cleavage was 0.18.

As for U20G A25C U34A C37A, the self-cleavage is 0.02.

With G22A A39U C45U, the self-cleavage was 1.87.

With G21A C31A C46G, the self-cleavage is 0.09.

As for U20G G22A C23U G36A, the self-cleavage stood at 0.08.

As for G22A A25U G29C, the self-cleavage was 0.12.

Take U20G A25C U43C: the self-cleavage is 0.04.

Take G22A G27U A41C: the self-cleavage was 0.02.

On to G22C U32A G36C C42U, for which the self-cleavage worked out at 0.04.

Regarding G21C G33U G40C, the self-cleavage came out at 0.03.

Consider G21C G22A G27A C42U, for which the self-cleavage is 0.28.

Take G21U G30U U34G G40A: the self-cleavage stood at 0.02.

Turning to G22U C31A G40C C45G, the self-cleavage turned out to be 0.03.

For the variant G22U C23G U28A, the self-cleavage worked out at 0.35.

As for G22U C23A G44U C46U, the self-cleavage was 0.17.

Consider U20C U28G G29U U34C G35C G44C, for which the self-cleavage stood at 0.01.

Consider G21C C37G A39U, for which the self-cleavage came out at 0.03.

As for G22A A24C C37U, the self-cleavage is 0.03.

Turning to G21A A26C G33C, the self-cleavage was found to be 0.04.

In the case of G22U A24U G27C, the self-cleavage worked out at 0.55.

Turning to C23A C31G A39U C42G, the self-cleavage was determined as 0.02.

Turning to G21A G27U U28G A41U C42U, the self-cleavage is 0.21.

In the case of G21A G33U A39U, the self-cleavage was determined as 0.28.

With G22A U28A U34A A41U C46G, the self-cleavage was 0.03.

On to G22U G36U U43C, for which the self-cleavage came to 0.03.

Consider C23A C31A U32A, for which the self-cleavage was 0.19.

For U20G G22U C45U, the self-cleavage turned out to be 0.71.

As to G22C G35U C46U, the self-cleavage came to 0.09.

Take U20G A24C C37U: the self-cleavage amounted to 0.02.

For the variant G21U G22A G27U, the self-cleavage was found to be 0.31.

The record behind these values is the RNAGym collection of RNA variant scans (doi:10.7554/elife.90254).
